Measurements: PubChem BioAssay AID1963576 (National Center for Advancing Translational Sciences (NCATS), 2024)
Among all 46,000 compounds or so, about 60 (0.1%) were called active. Not shown: some 3% with an inconclusive outcome. Calls follow the shape of the dose curve; as a rule, active = well fitted inhibition curve with a large enough effect; inconclusive = small, poorly fitted or top-dose-only effect; inactive = no such curve, though single readings can be large or run the other way. The list shows a part of the results.

Assay: Primary qHTS assay for Inhibitors of ovarian cancer metastasis using an organotypic tumor microenvironment (TME) model. Also: nearly all actives have a fitted effect of over 65% in size.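 As to activity change, negative = inhibition: plate controls were DMSO wells for no effect and tomatine positive control wells for full effect.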
Conditions: SKOV3ip1-GFP adhesion/invasion on 3D omental model, fluorescence; series mostly up to 45.8 µM; activity change, negative = inhibition: at the top concentration
In short: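 qHTS, 4-pt dose (0.36-46 umol/L); SKOV3ip1-GFP, 1,200 cells/well, no FBS; primary omental fibroblast/mesothelial co-culture 48 h pre-grown; 2 h RT + 16 h 37 C; PBS wash, 4% PFA; GFP count 488/509 nm.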

Activity change, negative = inhibition, inactive:
CCc1ccc(-n2c(=O)c3sc4ccccc4c3n(CC(=O)NCc3ccccc3)c2=O)cc1 22.5%
COc1ccc(C2=C(N3CCN(c4cc(C)ccc4C)CC3)c3ccccc3C2=O)cc1 6.27%
COC(=O)c1cc2sccc2n1CC(=O)Nc1ccc(OC)c(OC)c1 -12.4%
Cc1ccc(C)c(CN2CCCN(CC(=O)Nc3ccc(C)c(C)c3)S2(=O)=O)c1 3.45%
Cc1ccc(S(=O)(=O)NCc2nc3nc(C)cc(C)n3n2)cc1 0.821%
Cc1cccc(C)c1OCC(=O)NC(Cc1c[nH]c2ccccc12)C(=O)O (stereo not given) 3.5%
CS(=O)(=O)Nc1ccc([N+](=O)[O-])cc1Oc1ccccc1 -13.3%
Cc1ccc(-n2c(=O)c3c4c(sc3n(CC(=O)Nc3cccc(Cl)c3)c2=O)CCCCC4)cc1C -9.23%
CCn1cc(C(=O)O)c(=O)c2cc(F)c(N3CCNC(C)C3)c(F)c21 (stereo not given) -16.3%
Cn1cc(C(=O)NCc2ccccc2Cl)c(=O)c2cc(S(=O)(=O)N3CCCCCC3)ccc21 31.6%
CCOC(=O)c1c(S(=O)(=O)N2CCC(C(=O)N3CCN(c4ccccc4F)CC3)CC2)c(C)n(C)c1C 1.52%
COc1cc(Cl)c(C)cc1NC(=O)CCc1nc2cccnc2n1Cc1cccs1 1.06%
Cc1cccc(Cn2c(SCc3ccc(C(=O)NC4CCCC4)cc3)nc3cccnc32)c1 3.55%
CCOC(=O)c1ccc(NC(=O)CCCn2c(=O)c3cccn3c3cccnc32)cc1 -3.83%
CC(C)N(Cc1ccccc1)C(=O)Cn1ncc2c3ccccc3n(Cc3ccccc3)c2c1=O 4.55%
COc1ccc(CCNC(=O)c2cn(C)c3ccc(S(=O)(=O)N4CCOCC4)cc3c2=O)cc1OC 17.3%
CN(Cc1ccccc1)C(=O)CCS(=O)(=O)c1ccc2c(c1)oc(=O)n2C -9.01%
O=C(CSc1ccccc1)NCc1ccc2c(c1)CCN2C(=O)c1ccccc1 6.42%
COc1cccc(-c2noc(CCCC(=O)NCc3ccco3)n2)c1 -5.6%
COc1ccc(OC)c(S(=O)(=O)NCC(c2ccco2)S(=O)(=O)c2ccccc2)c1 (stereo not given) -12.8%
COc1ccc(CC2=NN3C([C@@H](CCc4ccccc4)[C@@H](C)O)=NC(C)C3C(=O)N2)cc1OC (stereo not given in full) -8.93%
COc1ccc(OC)c(CNC(=O)c2ccc(NC(=O)c3nsc4ccccc34)cc2)c1 8.27%
COc1ccccc1N1CCN(Cc2nnc(-c3ccccc3C)o2)CC1 6.02%
O=S(=O)(Nc1ccc(C(F)(F)F)cc1)c1ccc2c(c1)OCCO2 -7.13%
O=C(NCCCc1nc2ccccc2n1Cc1cccc(Cl)c1)C1CCCCC1 -0.342%
O=C(c1ccc2c(c1)N(Cc1ccc(Cl)cc1)C(=O)c1ccccc1S2=O)N1CCC(Cc2ccccc2)CC1 (stereo not given) 16.6%
CCOC(=O)c1cccc(NC(=O)c2ccc3nc(CCc4ccccc4)oc3c2)c1 -1.42%
COCCCn1c(=O)c2sccc2n2c(CCCC(=O)Nc3cccc(C(F)(F)F)c3)nnc12 22%
CC1=C(C(=O)Nc2ccccc2)C(c2ccc[nH]2)n2ncnc2N1 (stereo not given) -1.84%
CCCCOC(=O)c1ccc(NC(=O)c2csnn2)cc1 5.24%
Cc1ccccc1OCC(=O)Nc1ccc2nc(SCC(N)=O)sc2c1 -6.8%
Cc1cccc(C)c1NC(=O)CSc1nc2ccccc2c2nc(CCc3c(C)n[nH]c3C)nn12 2.3%
CCCOc1ccc(C(=O)Nc2ccc3oc(-c4ccc(N(C)C)cc4)nc3c2)cc1 3.11%
Cc1c(Cl)cccc1NC(=O)Cn1nnc(-c2nc(-c3ccccc3)no2)c1N 9.49%
Cc1c(NC(=O)c2sc3ccccc3c2Cl)cccc1-c1nc2ccccc2o1 12%
COC(=O)c1ccc(NC(=O)C(=O)NCC(c2cccnc2)N2CCc3ccccc32)cc1 (stereo not given) -4.34%
CCCOc1ccc(OC(=O)c2cn(-c3ccc(OC)cc3)c(=O)c3ccccc23)cc1 -5.38%
COc1ccc(CNC(=O)C2=CC(c3cccc(OC)c3)=NS(=O)(=O)N2C)cc1 -7.17%
CC(=O)c1cccc(NC(=O)c2cc(C)nc3c2c(C)nn3-c2cccc(Cl)c2C)c1 -10.3%
CC(C)NC(=O)CN1C(=O)c2cccnc2Sc2ccccc21 27.9%
Cc1ccc(CCNC(=O)CCS(=O)(=O)c2cc3c(cc2Cl)NC(=O)CO3)cc1 37.3%
COc1cc(NC(=O)c2nc3ccccc3n(C)c2=O)cc(OC)c1OC 7.24%
COc1ccc(NC(=O)Cn2nc(C(F)(F)F)c3c2CCCC3)cc1OC -5.36%
Cc1cccc(N2CCN(C(=O)c3ccc4c(Cl)c5c(nc4c3)CCCC5)CC2)c1C -0.714%
CCOc1ccc(CNC(=O)CCS(=O)(=O)c2ccc3c(c2)oc(=O)n3C)cc1 -3.47%
CC(C)c1cc(C(=O)NCc2ccccc2)no1 3.76%
Cc1ccc(NC(=O)Cn2c(=O)n(Cc3ccc(C(=O)NCc4ccc5c(c4)OCO5)cc3)c(=O)c3ccccc32)cc1 12%
COc1ccc(NC(=O)c2csnn2)cc1 -12.8%
COC(=O)c1c(-c2ccc(Cl)cc2)noc1N1CCN(c2ccc(F)cc2)CC1 -4.75%
COc1ccc(NC(=O)Nc2nnc(N(C)C3CCCCC3)s2)c(OC)c1 0.293%
O=C(NCCc1ccccc1)c1c[nH]c2ccc(S(=O)(=O)Nc3ccccc3F)cc2c1=O 0.969%
O=C(Nc1ccc(O)c(-c2nc3ccccc3o2)c1)c1ccco1 0.437%
CCOC(=O)c1sc(NC(=O)COc2ccccc2Cl)c(C(=O)OCC)c1C 3.98%
COCCNC(=O)c1cc(Sc2ccc(F)cc2F)nc2ccccc12 -3.85%
COc1cc(OC)c(NC(=O)Nc2ccccc2OCc2cc(=O)n3cc(C)ccc3n2)cc1Cl 6.53%
CCc1ccc(S(=O)(=O)c2nnn3c2nc(NC2CCCC2)c2sccc23)cc1 -3.45%
CC(=O)N1CCN(c2ccc(OCc3nn(C)c(C)c3-c3cccc4c(CCCOc5cccc6ccccc56)c(C(=O)O)n(Cc5cccnc5)c34)cc2)CC1 -19.1%
CC1=C(C(=O)OCC2CCCCC2)C(c2c(F)cccc2Cl)CC(=O)N1 (stereo not given) 4.59%
COc1ccc(NC(=O)CN(C)S(=O)(=O)c2ccc3[nH]c4c(c3c2)CCCC4)cc1Cl -14.3%
COc1ccc(-n2ccn(Cc3ccc(C)cc3)c(=O)c2=O)cc1OC -9.43%
O=C(CSc1ccc2ccccc2n1)Nc1nsc(-c2ccc(Cl)cc2)n1 9.78%
COc1ccc(-c2noc(N3CCC(C(=O)Nc4ccc(C)c(F)c4)CC3)n2)cc1OC -13.7%
COc1ccc(CNC(=O)c2cccc(NC(=O)N3CCSc4ncccc43)c2)cc1 -9.22%
COc1ccc(Cl)cc1NC(=O)CCCn1c(C)c2cnn(-c3ccccc3)c(=O)c2c1C 10.4%
Cc1ccc(Cl)cc1N1C(=O)N(Cc2ccc(C#N)cc2)c2ccccc2S1(=O)=O -15.2%
CCCCNC(=O)CSc1nc2ccccc2nc1Cc1ccc(Cl)cc1 -9.58%
CCOc1cccc2cc(-c3nc4sc5c(c4c(=O)[nH]3)CCC(C)C5)c(=O)oc12 (stereo not given) -2.62%
Cc1ccc(NC(=O)CC2Nc3cccc4cccc(c34)NC2=O)cc1 (stereo not given) 0.486%
COc1cccc(Cn2c(=O)n(-c3ccc(Br)cc3F)c(=O)c3sc4ccccc4c32)c1 19.4%
Cc1ccc2nc(N(CCCN(C)C)C(=O)c3ccc(Br)s3)sc2c1 -3.7%
CCCOc1cccc(C(=O)N(Cc2cc(OC)c(OC)c(OC)c2)C2CCS(=O)(=O)C2)c1 (stereo not given) -0.163%
CCn1c(CN2CCC(C)CC2)nc2cc(NC(=O)COc3ccc([N+](=O)[O-])cc3)ccc21 2.21%
Cc1ccc(OCCn2nnc3sc4c(c3c2=O)CCC(C(C)(C)C)C4)cc1 (stereo not given) 0.159%
Cc1ccc(NC(=O)c2cc3c(=O)[nH]c4ccccc4c3n2C)cc1F -8.96%

outcome, inactive:
Cc1c(Cl)cccc1NC(c1ccc(F)cc1)c1nnc(-c2ccccc2)o1 (stereo not given)
Cc1cccn2c(=O)cc(CSc3nnc(NC(=O)COc4ccccc4)s3)nc12
COc1ccc(NC(=O)C2CCN(S(=O)(=O)c3c(C)noc3/C=C/c3cccs3)CC2)cc1
COC(=O)c1ccccc1NC(=O)c1ccc(-c2nc(CSc3ccc(C)cc3)c(C)o2)cc1
CCn1cc(C(=O)NCCc2ccc(C)cc2)c(=O)c2cc(S(=O)(=O)N3CCC(C)CC3)ccc21
O=C(OCc1cc(=O)n2nc(C3CC3)sc2n1)c1ccccc1Cl
COc1cccc(-c2nn3c(=O)cc(CN4CCN(C(=O)/C=C/c5ccccc5)CC4)nc3s2)c1
CCOc1ccccc1NC(=O)C1=C(C)Nc2ncnn2C1c1cccs1 (stereo not given)
Cc1ccc(-c2nc(-c3cc4cccc(OCc5ccccc5F)c4oc3=O)no2)cc1
COc1cc(C(=O)Nc2ccc(OCc3cc(=O)n4cc(C)sc4n3)cc2)cc(OC)c1OC
Cc1ccccc1NC(=O)CSc1nc2c(oc3ccccc32)c(=O)n1-c1ccccc1F
COc1ccc(C)cc1NC(=O)CCS(=O)(=O)c1ccc2c(c1)CC(=O)N2C
COc1ccc(CCNC(=O)CCc2c(C)nc3nc(C)nn3c2C)cc1OC
COc1ccc(Cn2c(SCc3ccc(C(=O)NCc4ccccc4F)cc3)nc3cccnc32)cc1
Cc1cccc(-n2c(=O)c3c(c4cc(C)ccc4n3C)n(Cc3ccccc3F)c2=O)c1
CC(=O)N1c2nc(-c3ccco3)nn2C2(CCCCC2)[C@@H]2CCCC[C@@H]21
O=C(c1ccc2c(c1)N(Cc1ccc(F)cc1)C(=O)c1ccccc1S2(=O)=O)N1CCC(Cc2ccccc2)CC1
COc1ccc(C2=Nc3ccc(C)cc3NC(c3ccc(Cl)cc3)=N2)cc1
COc1ccc(N(Cc2ccccc2)C(=O)c2nc(SC)ncc2Cl)cc1
COc1ccc(NC(=O)CCNS(=O)(=O)c2cccc3nsnc23)cc1OC
CC(C)c1ccc(NC(=O)c2cccn2-c2nnc(N3CCCCC3)s2)cc1
